Test results as given in a collection of fitness landscapes (doi:10.1016/j.celrep.2020.107928).
Whole data set: some 81,000 sequences, median “one-hybrid fitness for binding parS DNA” near -0.17, cut for the highest 2% near 0.51. The list shows a part of the results.

B1: Caulobacter ParB omega fusion; a variant is named by its letters at X, in order, B8GW30 (parent)
chain: MESVVVGEPGMSEGRRGLGRGLSALLGEVDAAPAQAPGEQLGGSREAPIEILQRNPDQPRRTFREEDLEDLSNSIREKGVLQPILVRPSPDTAGEYQIVAGERAWRAAQRAGLKTVPIMVRELDDLAVLEIGIIENVQRADLNVLEEALSYKVLMEKFERTQENIAQTIGKSXSHVANXMRLLXLPDEVQSYLVSGELTAXHARAIAAAADPVALAKQIIEGGLSVRETEALARKAPNLSAGKSKGGRPPRVKDTDTQALESDLSSVLGLDVSIDHRGSTGTLTITYATLEQLDDLCNRLTRGI

Variants of: B1
Experiment: one-hybrid fitness for binding parS DNA (scaled: cognate 1, non-cognate 0); higher = stronger binding
Conditions: with parS DNA site
Summary of the method: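 Bacterial one-hybrid selection in E. coli USO rpoZ- hisB- pyrF- with a HIS3 reporter carrying the site 19 bp from the promoter, screening Caulobacter ParB libraries with four specificity codons randomised (NNS). Cells grew 48 hours at 37°C on M9-minus-histidine plus 0.1 mM IPTG and 5 mM 3-AT. Plasmids before and after selection were Illumina-sequenced, three replicate libraries pooled, and variants under 10 reads dropped. Fitness is the log change in variant-to-wild-type read ratio, rescaled to cognate 1, non-cognate 0.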

Row | Variant | one-hybrid fitness for binding parS DNA
1 | QNHT | ≤ 0.2
2 | SDEC | ≤ 0.2
3 | LLSF | ≤ 0.2
4 | GTIG | ≤ 0.2
5 | PKLW | ≤ 0.2
6 | QMIV | ≤ 0.2
7 | IPPG | ≤ 0.2
8 | GPTY | ≤ 0.2
9 | VVSS | ≤ 0.2
10 | YVTY | ≤ 0.2
11 | YIDA | ≤ 0.2
12 | ALKF | ≤ 0.2
13 | HSPD | ≤ 0.2
14 | GWSS | ≤ 0.2
15 | QRNH | ≤ 0.2
16 | APRI | ≤ 0.2
17 | CICK | ≤ 0.2
18 | PTSS | ≤ 0.2
19 | RIHF | ≤ 0.2
20 | QVAI | ≤ 0.2
21 | GSMP | ≤ 0.2
22 | QNHD | ≤ 0.2
23 | EYRG | ≤ 0.2
24 | HLAD | ≤ 0.2
25 | QAYH | ≤ 0.2

Row | Variant | one-hybrid fitness for binding parS DNA
26 | RWQE | ≤ 0.2
27 | RRRT | 0.597
28 | RTTM | 0.316
29 | EPEC | ≤ 0.2
30 | SFEC | ≤ 0.2
31 | HVCP | ≤ 0.2
32 | KWYG | ≤ 0.2
33 | TKNF | ≤ 0.2
34 | GSWR | ≤ 0.2
35 | MYLC | ≤ 0.2
36 | MTRP | ≤ 0.2
37 | KYTQ | ≤ 0.2
38 | KGPD | ≤ 0.2
39 | SSVR | ≤ 0.2
40 | IAHL | ≤ 0.2
41 | VANW | ≤ 0.2
42 | VLVG | ≤ 0.2
43 | RVEC | 0.805
44 | RWNT | 0.682
45 | RWIY | ≤ 0.2
46 | FPGE | ≤ 0.2
47 | AGNA | ≤ 0.2
48 | CFSF | ≤ 0.2
49 | WDRA | ≤ 0.2
50 | WFKR | ≤ 0.2

Row | Variant | one-hybrid fitness for binding parS DNA
51 | RSNR | ≤ 0.2
52 | APTW | ≤ 0.2
53 | VSYG | ≤ 0.2
54 | CNTS | ≤ 0.2
55 | WKAG | ≤ 0.2
56 | LLIG | ≤ 0.2
57 | SSRG | ≤ 0.2
58 | MEAE | ≤ 0.2
59 | PGNS | ≤ 0.2
60 | QRRS | ≤ 0.2
61 | RPGE | ≤ 0.2
62 | YRHE | ≤ 0.2
63 | TKYR | ≤ 0.2
64 | GFGS | ≤ 0.2
65 | SWGI | ≤ 0.2
66 | KTCN | ≤ 0.2
67 | YEST | ≤ 0.2
68 | DRPR | ≤ 0.2
69 | REID | ≤ 0.2
70 | IVRY | ≤ 0.2
71 | WHRT | ≤ 0.2
72 | VNIY | ≤ 0.2
73 | AWWG | ≤ 0.2
74 | VVDS | ≤ 0.2
75 | EVLT | ≤ 0.2

Row | Variant | one-hybrid fitness for binding parS DNA
76 | FLAC | ≤ 0.2
77 | QDPM | ≤ 0.2
78 | LHPH | ≤ 0.2
79 | FASY | ≤ 0.2
80 | NMYT | ≤ 0.2
81 | WKTT | ≤ 0.2
82 | QMRC | ≤ 0.2
83 | RKFQ | ≤ 0.2
84 | WAYH | ≤ 0.2
85 | KTMP | ≤ 0.2
86 | NMPI | ≤ 0.2
87 | VTDM | ≤ 0.2
88 | TQHN | ≤ 0.2
89 | SPLR | ≤ 0.2
90 | CGAS | ≤ 0.2
91 | FVPY | ≤ 0.2
92 | YGNL | ≤ 0.2
93 | YSLI | ≤ 0.2
94 | CPHM | ≤ 0.2
95 | SMTI | ≤ 0.2
96 | TLDR | ≤ 0.2
97 | NDGY | ≤ 0.2
98 | RFNT | 0.862
99 | KRGV | ≤ 0.2
100 | RDSK | ≤ 0.2

Row | Variant | one-hybrid fitness for binding parS DNA
101 | HGIG | ≤ 0.2
102 | CVWS | ≤ 0.2
103 | QHRH | ≤ 0.2
104 | AKEW | ≤ 0.2
105 | RCVV | ≤ 0.2
106 | QKFL | ≤ 0.2
107 | SAHY | ≤ 0.2
108 | PLCY | ≤ 0.2
109 | TNSR | ≤ 0.2
110 | WWPT | ≤ 0.2
111 | SDDL | ≤ 0.2
112 | NNAP | ≤ 0.2
113 | NRKR | ≤ 0.2
114 | DNTR | ≤ 0.2
115 | SYKN | ≤ 0.2
116 | AARS | ≤ 0.2
117 | VTAR | ≤ 0.2
118 | SPNG | ≤ 0.2
119 | AHHY | ≤ 0.2
120 | PVPS | ≤ 0.2
121 | HLWS | ≤ 0.2
122 | LQRS | ≤ 0.2
123 | WPLK | ≤ 0.2
124 | SYLD | ≤ 0.2
125 | MCPR | ≤ 0.2

Row | Variant | one-hybrid fitness for binding parS DNA
126 | PPMP | ≤ 0.2
127 | SLAQ | ≤ 0.2
128 | QDMV | ≤ 0.2
129 | QHEE | ≤ 0.2
130 | PPPL | ≤ 0.2
131 | YRRC | 0.431
132 | SHDD | ≤ 0.2
133 | SSSQ | ≤ 0.2
134 | RLLK | ≤ 0.2
135 | KTHY | ≤ 0.2
136 | CTSC | ≤ 0.2
137 | KWKC | 0.238
138 | SLDV | ≤ 0.2
139 | HWDT | ≤ 0.2
140 | MKHR | ≤ 0.2
141 | IRAD | ≤ 0.2
142 | PHLD | ≤ 0.2
143 | HPAC | ≤ 0.2
144 | SAQY | ≤ 0.2
145 | ELRS | ≤ 0.2
146 | HLHS | ≤ 0.2
147 | VCTM | ≤ 0.2
148 | ANIC | ≤ 0.2
149 | DEGT | ≤ 0.2
150 | HARW | ≤ 0.2

Row | Variant | one-hybrid fitness for binding parS DNA
151 | HRNN | ≤ 0.2
152 | GSSV | ≤ 0.2
153 | TDND | ≤ 0.2
154 | GGKS | ≤ 0.2
155 | LVPI | ≤ 0.2
156 | IANM | ≤ 0.2
157 | RFWD | ≤ 0.2
158 | HLNE | ≤ 0.2
159 | EKVW | ≤ 0.2
160 | TANP | ≤ 0.2
161 | SGWL | ≤ 0.2
162 | ADDL | ≤ 0.2
163 | KYMP | ≤ 0.2
164 | CTRV | ≤ 0.2
165 | REGP | ≤ 0.2
166 | GAAA | ≤ 0.2
167 | GRSH | ≤ 0.2
168 | GEHL | ≤ 0.2
169 | RTFI | ≤ 0.2
170 | LDNF | ≤ 0.2
171 | YRDF | ≤ 0.2
172 | ALTL | ≤ 0.2
173 | IHTT | ≤ 0.2
174 | FYHT | ≤ 0.2
175 | DRNC | ≤ 0.2

Row | Variant | one-hybrid fitness for binding parS DNA
176 | RDAW | ≤ 0.2
177 | TADL | ≤ 0.2
178 | EVET | ≤ 0.2
179 | NSMS | ≤ 0.2
180 | LTNY | ≤ 0.2
181 | RCRQ | ≤ 0.2
182 | RYKQ | ≤ 0.2
183 | VSSK | ≤ 0.2
184 | QVMA | ≤ 0.2
185 | NDRL | ≤ 0.2
186 | CHCR | ≤ 0.2
187 | MAGC | ≤ 0.2
188 | WSSI | ≤ 0.2
189 | AYGY | ≤ 0.2
190 | SVAF | ≤ 0.2
191 | QSMI | ≤ 0.2
192 | SVRC | ≤ 0.2
193 | WIYE | ≤ 0.2
194 | GPEY | ≤ 0.2
195 | VING | ≤ 0.2
